Test results taken from the supplement of paper PMC5499739.
Over roughly 16,000 sequences, “Z-score” has its median near -0.37; the highest 2% begin near 3.1. This is one part of the list.

Test system: RBM10 RRM1-ZnF-RRM2 (GST-tagged construct)
Test: RNAcompete 7-mer binding Z-score; higher = stronger binding preference
Method in brief: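 GST-tagged RBM10 constructs (20 pmol) were mixed with a designed pool of 241 399 RNAs up to 41 nt (1.5 nmol), transcribed from microarray-derived DNA templates. Mixing was in 1 ml Hepes pH 7.8 buffer with KCl, NaCl, glycerol, DTT, BSA and glutathione Sepharose beads. Binding ran 30 min at 4°C, followed by four 2-min washes at 4°C, and bound RNA was identified by microarray hybridisation. Each heptamer motif received a one-sided Z-score for enrichment across probes containing it.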

| Sequence | RNAcompete 7-mer binding Z-score |
| --- | --- |
| UGCGUGG | 1.63 |
| GAUCGCC | -0.894 |
| AAUCUCG | -0.792 |
| CCCAAGU | -0.511 |
| UGUACAA | -0.307 |
| UGAAUUC | -0.694 |
| UUUUACU | -0.803 |
| UUAUCCG | -0.734 |
| CUGCACA | -0.544 |
| ACGGUUA | 0.742 |
| CAACACA | -0.144 |
| UCACGUU | -0.741 |
| GGCGGAU | 1.74 |
| AAGUAGA | 0.589 |
| CUGGGCU | 0.101 |
| UGACUCG | -0.431 |
| CCAGACC | -0.814 |
| CAAAAAG | -0.253 |
| AGCUAGU | -0.195 |
| CGUUGGA | 0.548 |
| CCUGUUA | -0.81 |
| GGACGAC | 1.18 |
| GCAAGGA | 2.65 |

| Sequence | RNAcompete 7-mer binding Z-score |
| --- | --- |
| GCCUCAC | -0.683 |
| AAGGGAG | 4.04 |
| GAGAGUG | 1.66 |
| CCCGGGG | 0.585 |
| GGAUCGU | 0.388 |
| GACACUG | -0.548 |
| GACGUCC | -0.876 |
| UAUGUCG | -0.326 |
| AUGCAUG | -0.0525 |
| CUCCAUU | -0.846 |
| GCGUCUA | -0.486 |
| CUAACUC | -0.657 |
| UAUUCCU | -0.803 |
| UUCAAAC | -0.763 |
| GGUAAGC | 1.79 |
| GGUACUA | 0.701 |
| UCAUCUA | -0.803 |
| CGUGACU | -0.275 |
| UUGGAAA | 0.538 |
| GGUGGAG | 3.9 |
| UGAGGGG | 3.5 |
| UAAUGUG | 0.432 |
| AUCAACC | -0.686 |

| Sequence | RNAcompete 7-mer binding Z-score |
| --- | --- |
| UCUUAGG | -0.355 |
| UUAUCCU | -0.901 |
| UCGCGUG | -0.0889 |
| GUGGCGG | 3.22 |
| UCCGCGA | -0.701 |
| GAAGGGC | 3.32 |
| UAGGGAA | 3.46 |
| CUUCGGC | -0.766 |
| GCGCACU | -0.442 |
| CCGAUUG | -0.606 |
| GCGCAGC | 0.202 |
| UCUUAAG | -0.65 |
| GCGUAUC | -0.278 |
| CGAUGCU | -0.635 |
| CGGCUCA | -0.53 |
| ACGCAUU | -0.592 |
| AUCUUUU | -0.657 |
| AGAGAAA | 0.621 |
| UAGGCGA | 1.82 |
| GACUCGG | -0.256 |
| GGCUGCC | -0.078 |
| AUUGUUC | -0.61 |
| AUUACCG | -0.49 |

| Sequence | RNAcompete 7-mer binding Z-score |
| --- | --- |
| AUUAUUA | -0.57 |
| AAUGACC | -0.482 |
| UGACUUA | -0.69 |
| UGCCGAC | -0.715 |
| AAUCCCA | -0.73 |
| CGACACA | -0.311 |
| UGCUAUU | -0.661 |
| CACGGUC | -0.362 |
| CCUUCGC | -0.967 |
| UAAAAUU | -0.504 |
| CAGUACG | -0.103 |
| UAAGCAU | -0.555 |
| UAUGAGA | 0.315 |
| GCCAUCU | -0.817 |
| AAUUGAG | 0.366 |
| ACGGCUC | -0.468 |
| GGCCAGC | -0.0889 |
| UGGGACA | 2.25 |
| GCUAGCA | -0.235 |
| GGAACUG | 0.909 |
| UUACUGU | -0.53 |
| UGUGGCU | 0.345 |
| CGAAGGU | 1.34 |
